Data published in article PMC4336329 (PLoS ONE, 2015).
Among all 310,000 compounds or so, about 2,200 (0.71%) showed an effect of 50% or more. The effect is printed as a negative number. This is one part of the list.

molecular target: human ether-à-go-go-related gene (hERG) potassium channel (human, UniProt Q12809); assay: primary screen, population patch clamp on CHO cells stably expressing hERG
Sequence (Q12809 whole entry, looked up): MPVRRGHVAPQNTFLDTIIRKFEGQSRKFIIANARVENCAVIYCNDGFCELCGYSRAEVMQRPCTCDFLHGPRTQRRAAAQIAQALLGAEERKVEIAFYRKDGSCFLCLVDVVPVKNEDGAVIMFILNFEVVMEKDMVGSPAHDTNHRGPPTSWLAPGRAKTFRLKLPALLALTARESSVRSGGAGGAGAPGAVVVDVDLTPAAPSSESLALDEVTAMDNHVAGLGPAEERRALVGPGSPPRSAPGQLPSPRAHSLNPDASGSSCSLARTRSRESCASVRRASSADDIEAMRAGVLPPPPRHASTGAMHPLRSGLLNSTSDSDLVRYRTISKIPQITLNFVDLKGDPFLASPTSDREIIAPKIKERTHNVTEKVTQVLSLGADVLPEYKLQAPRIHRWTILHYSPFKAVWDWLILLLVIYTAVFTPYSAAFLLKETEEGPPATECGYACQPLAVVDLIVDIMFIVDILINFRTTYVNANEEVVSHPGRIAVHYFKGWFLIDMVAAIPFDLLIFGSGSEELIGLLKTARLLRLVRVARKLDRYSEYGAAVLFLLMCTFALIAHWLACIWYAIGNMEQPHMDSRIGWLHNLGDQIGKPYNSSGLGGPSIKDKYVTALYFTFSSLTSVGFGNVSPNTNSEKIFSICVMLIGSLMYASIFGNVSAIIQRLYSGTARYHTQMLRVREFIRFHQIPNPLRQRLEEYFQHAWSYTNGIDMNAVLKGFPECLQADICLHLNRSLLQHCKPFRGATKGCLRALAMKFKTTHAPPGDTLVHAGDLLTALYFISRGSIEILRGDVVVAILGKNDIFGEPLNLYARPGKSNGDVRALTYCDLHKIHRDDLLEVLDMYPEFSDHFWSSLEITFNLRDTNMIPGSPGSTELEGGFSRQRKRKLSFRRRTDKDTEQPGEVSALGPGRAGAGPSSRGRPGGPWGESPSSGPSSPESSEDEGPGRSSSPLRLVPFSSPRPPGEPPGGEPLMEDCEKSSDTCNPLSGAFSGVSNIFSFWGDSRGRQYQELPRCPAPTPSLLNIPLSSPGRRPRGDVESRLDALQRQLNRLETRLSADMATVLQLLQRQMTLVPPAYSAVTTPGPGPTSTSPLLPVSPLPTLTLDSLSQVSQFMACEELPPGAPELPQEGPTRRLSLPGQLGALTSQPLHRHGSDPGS

| SMILES | hERG current change (%, negative = inhibition) at 1uM |
| --- | --- |
| CC(C)CCn1nnnc1CN1CCN(C(c2ccccc2)c2ccccc2)CC1 | 15.2% |
| COCCNc1nc(C)cc(-c2cc(C(=O)NCc3ccccc3)on2)n1 | 7% |
| S=C(NC1CCCCC1)N1CCN(c2ccccn2)CC1 | 3.76% |
| Cc1oc(-c2ccc3c(c2)OCCO3)cc1C(=O)O | -5.7% |
| COC(=O)CSc1nnc(COc2ccc3ccccc3c2)o1 | 17.6% |
| CN(C)c1ccc(C2CC(=O)NC3=C2C(=O)CC(C)(C)C3)cc1 (centres unmarked) | 9.28% |
| COc1ccccc1CCN1CCCC(CN(C)C(=O)CCC(=O)N(C)C)C1 (centres unmarked) | 12.2% |
| O=C1NC2(CCc3ccccc3C2)C(=O)N1CCOc1cccc(Cl)c1 (centres unmarked) | -8.69% |
| O=S(=O)(Nc1ccc(O)c(Sc2nc3ccccc3s2)c1)c1cccc2ccccc12 | 11.1% |
| Cn1c(=NC(=O)c2ccc(S(=O)(=O)N3CCCc4ccccc43)cc2)sc2cc(S(C)(=O)=O)ccc21 | 9.4% |
| O=Cc1[nH]c2ccccc2c1N(C(=O)CCl)c1ccc([N+](=O)[O-])cc1 | -3.08% |
| O=C(Cc1cccc2ccccc12)NCCOc1ccccc1F | 9.72% |
| CCOc1ccc(NC(=O)c2ccc(NC(=O)COC(=O)c3ccc(NC(=O)CC#N)cc3)cc2)cc1 | 8.33% |
| CCCCN(CC)C(=O)Cn1cnc2sc(C)c(S(=O)(=O)N3CCC(C)CC3)c2c1=O | -4.14% |
| COc1ccccc1N1CCN(Cc2nc(N)nc(Nc3ccc(C)cc3)n2)CC1 | -30.8% |
| O=C(NCc1cccnc1)c1ccc(Cl)c(S(=O)(=O)N2CCCCCC2)c1 | -2.91% |
| N#Cc1c(Nc2ccc(F)cc2)sc(C(=O)c2ccc(F)cc2)c1N | 2.63% |
| Cc1ccc(-c2nnn(CC(=O)N(CCN3CCOCC3)C(C(=O)NC(C)(C)C)c3ccc(C)o3)n2)cc1 (centres unmarked) | 8.86% |
| Cc1cc(OC(=O)c2ccccc2C)c([N+](=O)[O-])c(=O)[nH]1 | 14.4% |
| Cc1nc2ccccc2nc1CSc1nncs1 | 8.25% |
| Cc1ccccc1CN1CCNCC1.Cl | 13.1% |

| SMILES | hERG current change (%, negative = inhibition) at 1uM |
| --- | --- |
| COc1ccc2nc(NC(=O)Nc3cccc4ccccc34)sc2c1 | 7.55% |
| COc1ccc(S(=O)(=O)N2CCOCC2)cc1NC(=O)CCc1cc(OC)c(OC)c(OC)c1 | 2.32% |
| c1ccc2c(c1)CCCN2c1nc(N2CCOCC2)nc(N2CCOCC2)n1 | 14.5% |
| Cc1cc(OCc2cccc(S(=O)(=O)N3CCOCC3)c2)ccc1Cl | 4.05% |
| Cc1ccccc1CN1C[C@@H]2C[C@@H](c3cn[nH]c3-c3ccccc3)N3CCC[C@@]23C1=O | 11.2% |
| CCNC(=S)N(Cc1ccco1)Cc1cc2cc(OCC)ccc2[nH]c1=O | 5.19% |
| COCCNC(=O)CSc1nc2cc(OC)c(OC)cc2c(=O)n1Cc1ccc(OC)cc1 | 2.15% |
| Cc1ccc(SCC(=O)Nc2ccc(F)cc2[N+](=O)[O-])cc1C | 10.8% |
| Cc1cccc(OCC(=O)N2CCCc3ccccc32)c1 | 6.48% |
| CN(CC(=O)Nc1cccc(F)c1)C(=O)c1cc([N+](=O)[O-])ccc1N1CCOCC1 | 8.64% |
| O=S(=O)(c1cccs1)N1CCN(c2ccccc2)CC1 | 13.3% |
| CC(Sc1ncc(C(F)(F)F)cc1Cl)C(=O)NC(N)=O (centres unmarked) | 1.35% |
| CCc1cccc(CC)c1NC(=O)C1SC(=Nc2ccccc2C)C(c2nc3ccccc3s2)=C1N (centres unmarked) | 20.2% |
| O=C(c1cnn2cccnc12)N1CCN(c2ccccc2)CC1 | 19.5% |
| CCOC(=O)C1(Cc2cccc(OC)c2)CCN(Cc2ccccc2)CC1 | -7.08% |
| COc1ccc(CNC(=O)CC2(CC(=O)O)CCCCC2)cc1 | 14.9% |
| COc1ccc(Br)cc1C(=O)N/N=C/c1cccnc1 | 6.48% |
| CCCCOc1ccc(CSC(=N)N)cc1[N+](=O)[O-].Cl | -26.4% |
| Cc1nn(CC(=O)Nc2ccccc2)c(=O)c2ccccc12 | 7.11% |
| C=CCNC(=O)/C=C/c1c(F)cccc1Cl | 4.39% |
| CC(=O)N1CCOc2ccc(S(=O)(=O)Nc3cccc(C)n3)cc21 | 11.7% |

| SMILES | hERG current change (%, negative = inhibition) at 1uM |
| --- | --- |
| CC(NC(=O)c1ccc2ccccc2n1)c1ccc(Br)cc1 (centres unmarked) | 17.3% |
| COc1ccc(CCNC(=O)C(=O)NCC2OCCN2S(=O)(=O)c2ccc3c(c2)OCCO3)cc1OC (centres unmarked) | 15% |
| Cc1ccc(-n2nnnc2Sc2nc([N+](=O)[O-])nn2C)cc1C | 10.3% |
| O=C(CN(Cc1ccccc1)S(=O)(=O)c1ccc(S(=O)(=O)N2CCOCC2)cc1)Nc1ccccc1 | -10.3% |
| CCCn1c2ccccc2c2cnn(CC(=O)NCCCN3CCN(c4ccccc4)CC3)c(=O)c21 | -1.53% |
| O=C(NC1CSC/C1=N\O)c1ccccc1 (centres unmarked) | 11.3% |
| COc1ccc(OC)c(S(=O)(=O)N2CCN(CC(O)CN3CCOCC3)CC2)c1 (centres unmarked) | 14.9% |
| COc1ccc(C(=O)NCCNc2nc3ccc(C)cc3cc2C#N)cc1 | 11.9% |
| C=CCn1c(CCC(=O)Nc2ccc(C)c(Cl)c2)nnc1SCC(=O)Nc1ccccc1C | 12.2% |
| Cc1nn(Cc2ccccc2)c2c1C(c1ccccc1)C(C#N)=C(N)O2 (centres unmarked) | 12.5% |
| O=C(COc1cccnc1[N+](=O)[O-])NCCc1ccccc1 | 10.3% |
| COc1ccc(OC)c(-n2c(SCC(=O)N3CCc4ccccc43)nc3c(c2=O)SCC3)c1 | 5.9% |
| Cc1ccccc1Cn1nc(C)c(NC(=O)c2noc3c2CCCC3)c1C | 8.66% |
| COC(=O)c1ccccc1Sc1c(/C=N/OC(=O)c2ccccc2)c(C(F)(F)F)nn1C | 9.75% |
| CCOc1ccc(Cl)cc1S(=O)(=O)n1nnc2ccccc21 | 10.5% |
| CCOc1ccc(C2(C)NC(=O)N(CCN(C)C)C2=O)cc1 (centres unmarked) | 15.1% |
| Cc1cccc(Nc2nnc(SCC(=O)NC(=O)Nc3ccc4c(c3)OCCO4)s2)c1 | -13.9% |
| COc1ccc(C(=O)OCc2nc(N)nc(Nc3ccccc3C)n2)cc1OC | 16.2% |
| Cc1ccc(NC(=O)COC(=O)Cn2c(C)csc2=O)cc1C | 5.34% |
| CCN(CC(=O)Nc1c(F)cccc1F)C(=O)c1ccc(-n2cncn2)c([N+](=O)[O-])c1 | 12.9% |
| C1CCC(c2nn3c(-c4n[nH]c5c4CCC5)nnc3s2)CC1 | 3.03% |

| SMILES | hERG current change (%, negative = inhibition) at 1uM |
| --- | --- |
| O=C(NCc1ccco1)c1ccccc1NC(=O)C1CC(=O)N(c2ccc(Cl)cc2)C1 (centres unmarked) | -21.6% |
| COc1ccccc1N(C)S(=O)(=O)c1ccc(C(=O)NCCc2ccc(F)cc2)cc1 | 10.1% |
| CC(O)[C@H]1CC[C@H]2[C@@H]3CC[C@H]4C[C@@H](O)CC[C@]4(C)[C@H]3/C(=N/O)C[C@]12C (some centres unmarked) | 12.3% |
| C=CCn1c(C)cc(C(=O)COc2ccc(S(=O)(=O)N3CCCC3)cc2[N+](=O)[O-])c1C | 10.1% |
| CCOC(=O)[C@H]1[C@H]2COc3ccc(C)cc3[C@@H]2N2C(=O)c3cc(F)c(F)cc3NC(=O)[C@@]12C | 11.1% |
| CCOc1ccc(NC(=O)CN(C)C(=O)c2cccnc2Sc2ccc(Cl)cc2)cc1OCC | -5.81% |
| Cc1noc(C)c1COC(=O)CN(C)S(=O)(=O)c1ccc(Cl)cc1 | 10.9% |
| CCOc1ccc(C(CCc2ccccc2)NC(=O)c2ccc(OC)c(OC)c2)cc1OCC (centres unmarked) | 8.29% |
| Cc1ccc(S(=O)(=O)N(C)C)cc1N | 7.47% |
| CCN(CC)S(=O)(=O)c1ccc2oc(Nc3ccccc3)nc2c1 | 14% |
| COC(=O)c1ccc(C(NC(=O)OCc2ccccc2)/C(F)=C/[C@@H](C)C(=O)NCc2ccc(OC)c(OC)c2)cc1 (some centres unmarked) | 12.3% |
| CCOC(=O)C1=C(O)/C(=C/c2ccc(OCC(=O)O)c(OCC)c2)SC1=Nc1ccc(OC)cc1 | 18.5% |
| Cc1ccccc1Nc1nc(N2CCOCC2)nc(N2CCOCC2)n1.Cl | 48.2% |
| COc1ccc(-c2nc(NC(=O)C3CC(=O)N(Cc4ccco4)C3)sc2C)cc1 (centres unmarked) | 5.21% |
| CC(=O)NNS(=O)(=O)c1scc(S(=O)(=O)c2ccc(Cl)cc2)c1C | 12.1% |
| CCOc1ccc(NC(=O)N2CCC(n3nnc4ccccc43)CC2)cc1 | 0.631% |
| C[C@@H]1CCC(=O)N(C[C@@H](C)CSc2ccc(Br)cc2)CC1 | 10.6% |
| CCOc1ncccc1C(=O)N1CCN(c2ccc(C(F)(F)F)cn2)CC1 | 1.54% |
| O=C(c1ccc2c(c1)OCCO2)N1CCCC(CNS(=O)(=O)c2cccs2)C1 (centres unmarked) | 4.47% |
| O=C(N/N=C/C(Br)=C/c1ccccc1)c1cccs1 | 8.41% |
